# Laboratory results: PubChem BioAssay AID504832 (National Center for Advancing Translational Sciences (NCATS), 2011)
# In all, about 310,000 compounds went through this assay and about 18,000 (5.8%) were called active. Inconclusive results, whose numbers are uncertain, are shown with a selection of clear calls. Calls follow the shape of the dose curve; as a rule, active = well fitted inhibition curve with a large enough effect; inconclusive = small, poorly fitted or top-dose-only effect, or another doubt; inactive = no such curve, though single readings can be large or run the other way. Potencies of inconclusive entries are left out as doubtful fits.
# Experiment: Primary qHTS for delayed death inhibitors of the malarial parasite plastid, 48 hour incubation
# Conditions: P. falciparum luciferase growth in erythrocytes; series mostly up to 28.7 µM; activity change, negative = inhibition: at the top concentration
# Summary of the method: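 Read-out is firefly luciferase luminescence from an integrated reporter in P. falciparum, so falling signal marks reduced parasite growth. Infected erythrocytes were at 2% hematocrit and 0.1% parasitemia (final) in Albumax-supplemented RPMI 1640.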
# % is scaled to controls: 0 for no effect and ±100 for the full control effect; potency is read from the fitted curve at half-maximal effect; tags tell the direction and shape of the fitted curve.
SMILES,Potency,"activity change, negative = inhibition"
COc1ccc2cc(C(=O)N/N=C/c3sc4ccccc4c3O)ccc2c1,"inconclusive [inhibitor, single point]",–
CCN(CC)CCC(C)OC(c1ccccc1)c1ccccc1 (stereo unspecified),–,inactive: -18.3%
COc1cc(OC)c(C(=O)O/N=C(\N)c2cccc(C)c2)cc1OC,"inconclusive [inhibitor, partial curve, poor fit]",–
Cc1cccc(C)c1OCC(O)CN1CCC(CN2C(=O)c3cccc4cccc(c34)C2=O)CC1 (stereo unspecified),"inconclusive [inhibitor, single point]",–
CCOC(=O)c1csc(NC(=O)c2cc(=O)c3ccccc3o2)n1,–,inactive: 3.59%
CC12CCC(C(=O)N/N=C/c3ccc(O)cc3O)(OC1=O)C2(C)C (stereo unspecified),"inconclusive [inhibitor, partial curve, poor fit]",–
CC(C)Sc1ncc(S(=O)(=O)c2ccccc2)c(=O)[nH]1,"inconclusive [inhibitor, single point]",–
Cc1cccc2[nH]c(SCC(=O)N3CCOCC3)nc12,–,inactive: 15.2%
COC(=O)c1ccccc1NC(=O)[C@@H]1CCC(=O)N1C1OC(=O)c2c1ccc(OC)c2OC (stereo partly specified),–,inactive: 24.4%
CC(C)NS(=O)(=O)c1ccc(NC(=O)C(C)OC(=O)CCCOc2ccccc2)cc1 (stereo unspecified),–,inactive: -4.42%
COc1ccc(O)c(C(=O)CC(=O)c2ccccc2)c1,–,inactive: 401%
Cc1cc(Cl)ccc1OCC(=O)Nc1cccnc1,–,inactive: 48%
O=C(c1cc(-c2ccc(Cl)cc2)on1)N1CCCC1,–,inactive: 195%
CCCN1CC=C2C(C#N)=C(N)C(C#N)(C#N)C(c3cc(OC)ccc3OC)C2C1 (stereo unspecified),"inconclusive [inhibitor, single point]",–
CCN(CC)c1ccc(/C=N/Nc2nc(C)cc(C)n2)cc1,"inconclusive [inhibitor, partial curve]",–
CC1(C)CC(=O)C2=C(C1)OC1=C(C(=O)CC(C)(C)C1)C2c1ccc(O)cc1O,active: 11.7 µM,–
O=c1c2c(-c3ccccc3)csc2nc2c3ccccc3c(NCCN3CCOCC3)nn12,active: 3.29 µM,–
Cc1cc(C)c(S(=O)(=O)c2cccc(Cl)c2)c(Cl)n1,active: 10.4 µM,–
COC(=O)C1=C(c2ccc(Cl)c(C(F)(F)F)c2)C[C@@H]2CC[C@H]1N2C(=O)NCCO,"inconclusive [inhibitor, partial curve, poor fit]",–
CCOc1cccc(-c2nn3c(-c4cc(C)[nH]n4)nnc3s2)c1,"inconclusive [inhibitor, partial curve, poor fit]",–
COc1cc(NC(=O)Cn2cnc(S(=O)(=O)N3CCc4ccccc43)c2)cc(OC)c1OC,"inconclusive [inhibitor, single point]",–
C=CCN1C(=O)C(Cc2cccc(Cl)c2)S/C1=N/N=C/c1ccco1 (stereo unspecified),"inconclusive [inhibitor, single point]",–
CCOc1ccc(-c2cccc(NC(=O)c3cccs3)c2)nn1,active: 5.22 µM,–
C[C@@H](C(=O)Nc1cccnc1)n1c(=O)[nH]c2ccccc2c1=O,active: 11.7 µM,–

SMILES,Potency,"activity change, negative = inhibition"
CCOc1ccc(C(=O)NCC(=O)NCC(c2ccccc2OC)N2CCCC2)cc1 (stereo unspecified),"inconclusive [inhibitor, single point]",–
Cc1cccc(N2CCN(C(=O)C(Cc3ccccc3)n3cccc3)CC2)c1C (stereo unspecified),"inconclusive [inhibitor, single point]",–
Clc1ccc(COn2nnc3ccccc32)c(Cl)c1,–,inactive: 12.1%
COC(=O)c1c(NC(=O)C(=O)NCCCN2CCOCC2)sc2c1CCC2,"inconclusive [inhibitor, full curve, poor fit]",–
COC(=O)c1ccccc1S(=O)(=O)N1CCC(C(=O)NC2CCCCC2C)CC1 (stereo unspecified),–,inactive: -24.7%
O=C(Cn1c(NCCCCl)nc2ccccc21)c1ccccc1,"inconclusive [inhibitor, single point]",–
O=[N+]([O-])c1ccc(-n2cnc3ccccc32)c([N+](=O)[O-])c1,"inconclusive [inhibitor, partial curve]",–
CC(C)NC(=O)N1CC(c2ccccc2)C(c2ccc(Cl)cc2)=N1 (stereo unspecified),"inconclusive [inhibitor, partial curve, poor fit]",–
CC(C)c1ccc(C(C(=O)NC2CCCCC2)N(C(=O)c2ccccn2)c2cccnc2)cc1 (stereo unspecified),active: 10.4 µM,–
O=C(Nn1c(O)c(C=C2N=c3ccccc3=N2)sc1=S)c1cccc(Cl)c1,"inconclusive [inhibitor, single point]",–
Cc1ccc(C(=O)N2CCC(C)CC2)cc1S(=O)(=O)N1CCCCC1,"inconclusive [inhibitor, single point]",–
Cc1nn(-c2ncc(C(F)(F)F)cc2Cl)c(=O)n1-c1cccc(F)c1,"inconclusive [inhibitor, partial curve, poor fit]",–
COc1cccc(/C=C/C(=O)Nc2ccc3nc4n(c(=O)c3c2)CCCC4)c1OC,active: 2.08 µM,–
Cc1cc(C(=O)COC(=O)c2cccs2)c(C)n1-c1c(C)n(C)n(-c2ccccc2)c1=O,–,inactive: 15.2%
Cc1ccc(C(C(=O)NC2CCCC2)N(Cc2ccc(F)cc2)C(=O)c2csnn2)o1 (stereo unspecified),"inconclusive [inhibitor, single point]",–
CCOC(=O)C(C)Sc1nc2c([nH]c3ccccc32)c(=O)n1C (stereo unspecified),"inconclusive [inhibitor, single point]",–
Cc1ccc(C2(C)NC(=O)N(CC(=O)N3CCN(S(=O)(=O)c4ccc(Cl)s4)CC3)C2=O)cc1 (stereo unspecified),"inconclusive [inhibitor, single point]",–
Cc1nn(CC(=O)NCCCN2CCC(N3CCCCC3)CC2)c(=O)c2cc(-c3ccccc3)nn12,"inconclusive [inhibitor, full curve]",–
COC(=O)c1ccc(-c2noc(CN(C)CC3CCCCO3)n2)cc1 (stereo unspecified),–,inactive: 87.4%
CS(=O)(=O)c1ccccc1C(=O)Nc1cccc2ncccc12,"inconclusive [inhibitor, partial curve, poor fit]",–
Cc1ccc(C2CC2C(=O)NNC(=S)Nc2ccc(Cl)cc2)cc1 (stereo unspecified),–,inactive: -10.6%
COc1cccc(CC(=O)Nc2cc(S(=O)(=O)N3CCOCC3)ccc2N2CCN(C)CC2)c1,"inconclusive [inhibitor, single point]",–
COc1ccc(-c2cc(C3CC3)nc3sc(C#N)c(N)c23)cc1,"inconclusive [inhibitor, partial curve]",–
CCCNC(=O)c1ccc(CNc2c(N3CCC(C(=O)OCC)CC3)c(=O)c2=O)cc1,"inconclusive [inhibitor, partial curve, poor fit]",–

SMILES,Potency,"activity change, negative = inhibition"
COc1ccc2[nH]c(C)c(C(=O)CN3CCc4cc(OC)c(OC)cc4C3)c2c1,"inconclusive [inhibitor, partial curve, poor fit]",–
CCOC(=O)c1c(S(=O)(=O)N2CCCC(C(=O)Nc3ccc(C)cn3)C2)c(C)n(C)c1C (stereo unspecified),active: 13.1 µM,–
CC1CC(=O)C2=C(C1)Nc1ccccc1SC2c1ccc(F)cc1 (stereo unspecified),active: 11.7 µM,–
O=C(O)CCC1COc2ccccc2O1 (stereo unspecified),–,inactive: -2.34%
COc1ccc(CSc2n[nH]c(C)n2)cc1[N+](=O)[O-],–,inactive: 1.79%
Cc1cc2c(c(=O)n1-c1ccccc1)C1O[C@](c3ccsc3)(Cc3cc(C#N)ccc31)O2,"inconclusive [inhibitor, single point]",–
CCN(CC)c1nc2ccccc2nc1-n1nc(C)cc1C,"inconclusive [inhibitor, single point]",–
O=C(O)CC1NC(=O)N(C2CCCCC2)C1=O (stereo unspecified),–,inactive: -2.36%
Cc1c(/C=N/NC(=O)CNc2ccccc2)c2ccccn2c1C(=O)c1ccc(Cl)cc1,active: 3.29 µM,–
COC(=O)c1cccc(N(CC(=O)NC2CCCCC2)C(=O)CNC(=O)c2cccs2)c1,"inconclusive [inhibitor, partial curve, poor fit]",–
COc1ccccc1NC(=S)NCC1CCCCC1,–,inactive: 2.76%
O=C(NCc1cccnc1)C1CCC(c2ccc(Cl)cc2)CC1 (stereo unspecified),"inconclusive [inhibitor, single point]",–
CCOc1ccccc1CNC(=O)c1ccc2nc(N3CCOCC3)sc2c1,"inconclusive [inhibitor, full curve, poor fit]",–
Cc1c(NS(=O)(=O)c2cccc(C(=O)OCC(=O)N(C)C3CCCCC3)c2)c(=O)n(-c2ccccc2)n1C,–,inactive: -7.37%
COc1ccccc1NC(=O)COc1ccc(C(=O)NC2CCCc3ccccc32)cc1OC (stereo unspecified),"inconclusive [inhibitor, full curve]",–
O=C(O)c1ccc(CNC(=O)C23CC4CC(CC(C4)C2)C3)cc1,–,inactive: -1.55%
CC(C)(C)c1ccc(OC(=O)Cn2c(C(F)(F)F)nc3ccccc32)cc1,–,inactive: 58.2%
Cc1cccc2nc(CSc3nc4cc([N+](=O)[O-])ccc4s3)cn12,–,inactive: 5.75%
CCOC(=O)N1CCC(c2cc(=O)n3[nH]cc(C(=O)OC)c3n2)CC1,–,inactive: -0.765%
N=c1c2c(ncn1CCCO)Oc1cc(O)ccc1C2c1ccccc1 (stereo unspecified),"inconclusive [inhibitor, partial curve, poor fit]",–
CCOc1ccc(NC(=O)c2ccccc2NC(=O)CN2CCCCCC2)cc1,"inconclusive [inhibitor, single point]",–
Cc1c(C(=O)C(=O)N2c3ccc(F)cc3CCC2C)c2ccccc2n1C (stereo unspecified),"inconclusive [inhibitor, single point]",–
CCC1CCc2c([nH]c3ccccc3c2=O)O1 (stereo unspecified),"inconclusive [inhibitor, full curve]",–
